Results reported in PubChem BioAssay AID588342 (National Center for Advancing Translational Sciences (NCATS), 2011).
Where “and” joins values, the source holds several entries; their conditions need not be identical. Equal values may be shown once. The campaign covered roughly 360,000 compounds. About 25,000 (6.9%) were called active. Inconclusive means that the source gave no clear call. Such entries were picked first, then a sample of the others. Calls come from the whole dose curve; as a rule, active = well fitted inhibition curve with a large enough effect; inconclusive = small, poorly fitted or top-dose-only effect; inactive = flat fitted curve, though single readings scatter. Where the call is inconclusive, the potency comes from a doubtful curve fit.

target: Luciferin 4-monooxygenase (Photinus pyralis) (UniProt P08659); test: qHTS profiling assay for firefly luciferase inhibitor/activator using purifed enzyme and Km concentrations of substrates (counterscreen for miR-21 project); details: purified FLuc, luminescence inhibition; series mostly up to 57.5 µM; note: nearly all actives have a fitted effect of over 55% in size
UniProt P08659, sequence (P08659 whole entry, looked up): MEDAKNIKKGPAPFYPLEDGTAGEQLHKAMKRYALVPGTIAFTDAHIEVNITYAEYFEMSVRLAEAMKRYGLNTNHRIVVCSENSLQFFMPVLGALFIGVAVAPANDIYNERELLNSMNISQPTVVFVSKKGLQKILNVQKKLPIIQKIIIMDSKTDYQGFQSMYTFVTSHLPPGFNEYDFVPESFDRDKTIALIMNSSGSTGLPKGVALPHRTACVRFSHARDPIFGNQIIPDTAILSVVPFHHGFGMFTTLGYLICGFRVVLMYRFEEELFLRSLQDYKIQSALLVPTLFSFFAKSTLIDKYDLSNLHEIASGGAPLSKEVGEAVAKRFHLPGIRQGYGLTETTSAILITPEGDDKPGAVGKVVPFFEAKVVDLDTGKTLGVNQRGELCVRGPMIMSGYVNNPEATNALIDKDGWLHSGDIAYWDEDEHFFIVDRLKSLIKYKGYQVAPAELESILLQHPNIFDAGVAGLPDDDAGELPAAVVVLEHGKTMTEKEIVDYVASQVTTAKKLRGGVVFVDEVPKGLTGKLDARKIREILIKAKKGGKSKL
In short: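 Purified P. pyralis luciferase (10nM final) with 10uM D-luciferin and 10uM ATP (Km levels) in 50mM Tris acetate pH 7.5, 10mM Mg acetate, 0.01% Tween-20, 0.05% BSA; qHTS 6-point titration, ~60 µM downward; luminescence read.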
Potency is the fitted concentration of half-maximal effect; tags give direction and shape of the fitted curve.

SMILES | Potency
O=C(COc1ccccc1)c1cn(CC(=O)N2CCCC2)c2ccccc12 | active: 21.3 µM
CC(=O)Oc1ccc(N(C(C)=O)S(=O)(=O)c2ccc(C)cc2C)c2ccccc12 | inactive
CN(C)S(=O)(=O)c1ccc(Cl)c(NC(=O)COC(=O)CCSc2ccccc2)c1 | inconclusive: 37.9 µM [inhibitor, partial curve, poor fit]
CCC1(c2ccccc2)NC(=S)N(c2ccc(C)cc2)N1 (configuration not stated) | inconclusive: 37.9 µM [inhibitor, partial curve, poor fit]
CC(Sc1ccc2ccccc2n1)C(=O)O (configuration not stated) | inconclusive: 37.9 µM [inhibitor, partial curve, poor fit] and inconclusive: 26.9 µM [inhibitor, partial curve, poor fit]
Nc1nc(SCC(=O)c2ccc(Oc3ccccc3)cc2)n[nH]1 | inconclusive: 23.9 µM [inhibitor, single point]
CCCCOc1ccc(C2=NC(c3ccncc3)=Nc3ccc(Br)cc3N2)cc1 | inactive
CC1(C)C[C@@H]1C(=O)N/C(=C\CCCCSC[C@H](N)C(=O)O)C(=O)O | inactive
COc1ccc(N2CC(NC(=O)/C=C\c3ccc(OC)c(OC)c3)CC2=O)cc1 (configuration not stated) | inactive
O=C(COC(=O)c1ccc(O)cc1)Nc1nccs1 | inconclusive: 23.9 µM [inhibitor, partial curve, poor fit]
Cc1cccc(S(=O)(=O)Nc2cccc(-c3cn4ccsc4n3)c2)c1 | inconclusive: 30.1 µM [inhibitor, partial curve, poor fit]
COC(=O)c1ccc(CNC(=O)c2ccc3c(c2)S(=O)(=O)N=C2CCCCCN23)cc1 | inconclusive: 42.6 µM [inhibitor, partial curve, poor fit]
C/C(=N\NC(=O)C(N)=O)c1ccc(NC(=O)c2cccs2)cc1 | inconclusive: 21.3 µM [inhibitor, partial curve, poor fit]
CCn1ccc2cc(S(=O)(=O)N3CCCN(C(=O)Nc4ccccc4OC)CC3)ccc21 | inconclusive: 26.9 µM [inhibitor, partial curve, poor fit]
CCc1nnc(NC(=O)c2cc(S(=O)(=O)N3CCCCC3)ccc2C)s1 | inactive
CCOCCOC(=O)C1=C(C)N(C)C(=O)NC1c1cc(Cl)c(O)c(OCC)c1 (configuration not stated) | inconclusive: 8.49 µM [inhibitor, single point]
COc1ccc(CCNC(=O)C2CCN(S(=O)(=O)c3ccc(SC)cc3)CC2)cc1 | inactive
CNC(=S)N/N=C1\C(=O)c2cccc3cccc1c23 | inconclusive: 13.5 µM [inhibitor, partial curve]
COc1ccc(NC(=O)c2sc3nc(N4CCCC4)c4c(c3c2N)CC(C)(C)OC4)cc1 | inactive
COc1ccccc1NC(=O)c1oc2ccc(C)cc2c1C | active: 9.53 µM
O=C(N/N=C/c1ccccc1C(=O)O)c1ccc(COc2cccc3cccnc23)cc1 | inconclusive: 30.1 µM [inhibitor, single point]
Cc1ccc(C(=O)CSC2=C(C#N)C(c3ccco3)C3=C(CC(C)(C)CC3=O)N2)cc1 (configuration not stated) | inconclusive: 13.5 µM [inhibitor, partial curve, poor fit]
Cc1ccc(NC(=O)CN(C)Cc2cccs2)cc1Cl | inconclusive: 37.9 µM [inhibitor, partial curve, poor fit]

SMILES | Potency
Cc1cc2oc(=O)c(CC(=O)NCCc3ccccc3)c(C)c2c2occ(C(C)(C)C)c12 | inconclusive: 7.57 µM [inhibitor, full curve]
CCc1nnc(NC(=O)c2cc(-c3ccc(C)o3)nc3ccccc23)s1 | active: 10.7 µM
CCN(CC)C(=O)c1ccc(C(=O)Nc2ccc(F)cc2)cc1 | inconclusive: 30.1 µM [inhibitor, partial curve, poor fit]
CN(C)c1ccc(/C=C/c2nc3ccccc3c(=O)[nH]2)cc1 | active: 0.213 µM
COc1ccc(-c2nc3nc(C)cc(C)n3n2)cc1 | active: 10.7 µM
O=C(Nc1ccc(Br)cn1)c1coc(=O)c(Br)c1 | inconclusive: 21.3 µM [inhibitor, partial curve, poor fit]
Cc1cc(/C=N/Nc2nc(N)ncc2[N+](=O)[O-])c(C)n1-c1ccccc1F | active: 0.0478 µM
O=C(Nc1c(F)cc(F)cc1Br)c1cc(-c2ccc(O)cc2)on1 | inconclusive: 21.3 µM [inhibitor, single point]
COc1ccc(/C=N/NC(=O)c2ccccc2OC)cc1COc1ccccc1[N+](=O)[O-] | inactive
Cc1cc(NC(=O)COC(=O)c2ccccc2[N+](=O)[O-])no1 | inconclusive: 37.9 µM [inhibitor, partial curve, poor fit]
O=C(/C=C/c1cccc(Br)c1)Nc1nn[nH]n1 | inconclusive: 37.9 µM [inhibitor, partial curve, poor fit]
Cc1ccc(-c2nnc(SCC(=O)O)n2N)cc1 | inactive
O=C(Nc1cccc(NC(=O)c2ccc3c(c2)OCO3)c1)c1ccccc1 | inconclusive: 12 µM [inhibitor, partial curve, poor fit]
C/C(=N/NC(=O)c1ccc(Br)o1)c1ccncc1 | inconclusive: 26.9 µM [inhibitor, partial curve, poor fit]
O=C(Cn1ccc(C(F)(F)F)n1)N/N=C/c1ccc(N2CCOCC2)cc1 | inactive
CCCCC(CC)CNC(=O)C(=O)C1C(=O)Nc2ccccc21 (configuration not stated) | inconclusive: 26.9 µM [inhibitor, partial curve, poor fit]
CCn1c(SCC(=O)c2ccc(Cl)cc2)nnc1-c1ccoc1C | inconclusive: 19 µM [inhibitor, partial curve, poor fit]
CCCN(C(=O)c1cccs1)c1nnc(-c2ccncc2)s1 | inconclusive: 23.9 µM [inhibitor, partial curve, poor fit]
O=C(Nc1cccc(C(=O)Nc2ccccc2F)c1)c1ccccc1 | inconclusive: 23.9 µM [inhibitor, partial curve, poor fit]
CCCCOc1ccc(/C=C/C(=O)NCCc2nc3ccccc3[nH]2)cc1 | inconclusive: 19 µM [inhibitor, partial curve]
O=C(O)C1c2ccccc2C(=O)N(Cc2ccc(F)cc2)C1c1ccncc1 (configuration not stated) | inactive
COc1ccc(-c2cc(C(=O)Oc3cccc(C)c3)c3ccccc3n2)cc1 | inconclusive: 9.53 µM [inhibitor, partial curve, poor fit]
O=C(N/N=C\c1cn(-c2ccccc2)nc1-c1ccccc1)c1ccc2c(c1)OCO2 | active: 4.78 µM

SMILES | Potency
Cc1ccc(Nc2nnc(SCC(=O)NCCN3C(=O)CSC3=O)s2)cc1 | active: 8.49 µM
CC(Sc1nnc(-c2ccco2)n1C)C(=O)Nc1ccc(N2CCOCC2)cc1 (configuration not stated) | inconclusive: 21.3 µM [inhibitor, single point]
Cc1ccc(NC(=O)CSc2nc3ccccc3c3nc(CCn4cncc4C)nn23)cc1F | inactive
Cc1ccc(NC(=O)CCn2c(=O)oc3ccccc32)cc1 | inconclusive: 12 µM [inhibitor, partial curve, poor fit]
O=C(OCC(=O)N1CCCCC1)c1cccc(NS(=O)(=O)c2ccccc2)c1 | inconclusive: 10.7 µM [inhibitor, partial curve]
CC(=O)Nc1ccc(NC(=O)c2ccccc2CCc2ccccc2)cc1 | inactive
Cn1cccc1/C=C1\SC(=S)N(Nc2ccccc2)C1=O | inconclusive: 19 µM [inhibitor, partial curve]
CCN1CCc2nc3sc(C(=O)Nc4cccnc4Cl)c(N)c3cc2C1 | inconclusive: 23.9 µM [inhibitor, single point]
CCc1ccc(N2C(=O)CN(Cc3ccccc3)C2=S)cc1 | inconclusive: 37.9 µM [inhibitor, single point]
CC(=O)Nc1ccccc1-c1nc2ccccc2n(CC(=O)c2ccc(C)c(C)c2)c1=O | inactive
O=C(CSc1nccn1-c1ccccc1)c1ccc(Cl)cc1 | inconclusive: 16.9 µM [inhibitor, partial curve, poor fit]
O=[N+]([O-])c1cccc(NC(=S)N2CCc3ccccc3C2)c1 | inconclusive: 23.9 µM [inhibitor, partial curve]
O=S(=O)(Cc1noc(-c2ccc(Cl)cc2)n1)Cc1ccco1 | inconclusive: 26.9 µM [inhibitor, single point]
COc1cc(OC)cc(C(=O)Nc2ccc(-c3nc4ccccc4o3)c(O)c2)c1 | inconclusive: 16.9 µM [inhibitor, partial curve]
COC(=O)c1ccc(NC(=O)c2ccc(NC(=O)c3ccco3)cc2)cc1 | inactive
CCc1ccc(OCC(=O)N/N=C/c2ccc(OS(=O)(=O)c3ccc(C)cc3)c(OC)c2)cc1 | active: 5.36 µM
CCOC(=O)C(=O)C1=C(N2CCOCC2)/C(=C\c2ccc(F)cc2)CC1 | inconclusive: 26.9 µM [inhibitor, single point]
COc1ccc(CC(=O)N/N=C(\C)CC(=O)Nc2ccc3c(c2)OCCO3)cc1OC | inconclusive: 37.9 µM [inhibitor, partial curve, poor fit]
Cc1ccc2ncnc(Oc3ncccc3NC(=O)C(C)(C)C)c2c1 | inactive
COc1ccccc1OC(=O)Nc1ccc(Cl)cc1 | inconclusive: 21.3 µM [inhibitor, single point]
Cc1cc(OCc2ccc(C(=O)n3cccn3)o2)ccc1Cl | inconclusive: 26.9 µM [inhibitor, partial curve, poor fit]
